In all, about 150,000 compounds went through this assay and about 540 (0.36%) showed an effect of 50% or more. The list shows a part of the results.

In this assay the test system is Plasmodium falciparum. Kind of assay: Primary screen in NF54 nanoGlo assay, in single point, at 2uM, 72h; a lower Z score goes with more inhibition. The class given is functional, Erythrocyte. The note with it: timepoint 72 hour.
Regarding `O=C(CN1C(=O)[C@@H]2CCCCN2c2ccc(C(=O)N3CCCCC3)cc21)NC1CCCCCCC1`, the “% Inhibition” value is given as -14% and the Z score was found to be 1.25.

For `CCc1noc2nc(C)nc(NCc3ccco3)c12`, the “% Inhibition” value was 8% and the Z score is reported as -0.89.

For `CCn1nc(C(=O)N2CC(=O)Nc3ccccc32)cc1C`, the “% Inhibition” value is 0% and the Z score worked out at 0.01.

Consider `N#Cc1ccc(N[C@H]2CCCN(Cc3ccc(F)cc3F)C2=O)cn1`, for which the “% Inhibition” value was 36% and the Z score is -5.14.

Consider `Cc1ccc2c(c1)C(NCc1nnc3n1CCCC3)C(C)C2` (stereo unspecified), for which the “% Inhibition” value is reported as -2% and the Z score came out at 0.4.

Take `Cc1cc(NC(=O)CN2CCCC[C@@H]2CNC(=O)OC(C)(C)C)no1`: the “% Inhibition” value is recorded as -15% and the Z score was 2.89.

`CCn1cc(C(=O)NC/C=C(\C)CCC=C(C)C)cn1`: the “% Inhibition” value is on record as -1% and the Z score is recorded as 0.1.

As for `Cc1cc(C)cc(CCNC(=O)NCc2cnc(C)s2)c1`, the “% Inhibition” value is on record as 8% and the Z score is reported as -0.93.

For the compound `O=C(c1ccc2ncccc2c1)N1CC[C@@]2(CCCN(CC3CC3)C2=O)C1`, the “% Inhibition” value is given as -5% and the Z score came out at 0.89.

For `O=S(=O)(CCC1CCCC1)N1CCCC[C@H]1c1ncc[nH]1`, the “% Inhibition” value is 13% and the Z score is reported as -2.2.

Regarding `CC(=O)Nc1cccc(NC(=O)c2cc3c(s2)CCCCC3)c1`, the “% Inhibition” value is recorded as -15% and the Z score is listed as 1.66.

Regarding `O=C1CCc2cc(S(=O)(=O)N3CCOCC3)ccc2N1`, the “% Inhibition” value is on record as -8% and the Z score stood at 0.64.

`NC(=O)c1nc(CNC(=O)C[C@@H](c2ccccc2)c2cccc(Cl)c2)no1`: the “% Inhibition” value is -12% and the Z score is 2.04.

`CNC(=O)c1cc2c(s1)CCN(C(=O)[C@H]1CCCN(C(N)=O)C1)C2`: the “% Inhibition” value is listed as -1% and the Z score amounted to 0.19.

As for `COC(=O)c1coc([C@H](CO)N(C)C)n1`, the “% Inhibition” value is -6% and the Z score was 0.81.

Regarding `CC(C)(C)C(O)CNC(=O)[C@H](O)c1ccccc1Cl` (stereo partly specified), the “% Inhibition” value is given as 18% and the Z score was -2.08.

With `COc1ccccc1Oc1c(CN(Cc2ccco2)C(=O)C(C)C)c(C)nn1-c1ccccc1`, the “% Inhibition” value was -8% and the Z score stood at 1.35.

Consider `Cc1noc(C)c1S(=O)(=O)N1CCCC[C@H]1c1noc(COCc2ccccc2)n1`, for which the “% Inhibition” value was 1% and the Z score is recorded as -0.07.

`CC1CCN(C(=O)[C@H](C2CCCC2)N2CCN(C(=O)c3ccc(Cl)cc3)CC2)CC1`: the “% Inhibition” value is reported as 6% and the Z score is recorded as -1.01.

Regarding `O=C(NC[C@@H](CO)Cc1ccc(Br)cc1)c1nnn(C2CC2)c1C(F)(F)F`, the “% Inhibition” value is -2% and the Z score is listed as 0.38.

With `O=C1CC(C2CCC2)=NN1c1ccncc1F`, the “% Inhibition” value is reported as -11% and the Z score was found to be 1.12.

As for `CC(C)CC(=O)N1CCOC(=O)C1(C)C`, the “% Inhibition” value was determined as 8% and the Z score was -1.07.

Turning to `Cc1cc(CN(C)C(=O)c2ncsc2C(C)C)no1`, the “% Inhibition” value is -2% and the Z score turned out to be 0.27.

Take `CC(NC(=O)N[C@H]1CCO[C@@H]1c1ccncc1)C1Oc2ccccc2C1C` (stereo partly specified): the “% Inhibition” value was -1% and the Z score was 0.19.

Turning to `O=C1CN(S(=O)(=O)c2ccc(C(=O)NCCc3ccccc3F)cc2)CCN1`, the “% Inhibition” value is -10% and the Z score was determined as 1.28.

As to `O=C(CS(=O)(=O)c1ccc2c(c1)S(=O)(=O)N=CN2)Nc1cccc2ccccc12`, the “% Inhibition” value is -8% and the Z score is on record as 1.1.

With `Cc1nn(-c2ccc(C(=O)NCc3cccnc3)cn2)c(C)c1C`, the “% Inhibition” value is recorded as -23% and the Z score is given as 2.65.

For the compound `Cc1c(C(F)(F)F)n[nH]c1C(=O)N(C)Cc1ccc(Br)cc1F`, the “% Inhibition” value was -14% and the Z score is on record as 2.11.

On to `O=C(c1ccccc1F)N(Cc1csc(COc2ccc(Cl)cc2)n1)C1CC1`, for which the “% Inhibition” value is on record as -1% and the Z score turned out to be 0.16.

With `O=c1c2c(c(Br)cn1Cc1ccc(F)cn1)CCCC2`, the “% Inhibition” value is -3% and the Z score was determined as 0.42.

Take `COc1ccc(C(=O)O[C@H]2CCOC2=O)cn1`: the “% Inhibition” value amounted to 4% and the Z score was -0.48.

As for `N#Cc1c(N)nc2c(c1-c1c[nH]c(CC3CCCC3)n1)COCC2`, the “% Inhibition” value turned out to be 13% and the Z score is given as -1.91.

As to `Cc1noc([C@H](C)OC(=O)c2cc(C(C)(C)C)on2)n1`, the “% Inhibition” value was -8% and the Z score is on record as 0.96.

For `COc1ccc(CCN(CCc2nc(-c3ccc(N(C)C)cc3)no2)C(=O)C2CCCC2)cc1OC`, the “% Inhibition” value is given as -2% and the Z score is given as 0.23.

In the case of `C[C@@H]1CN(C(=O)c2nc3ccc(Cl)cn3c2CN2C[C@H]3CC[C@H]2C3)C[C@H](C)O1`, the “% Inhibition” value was 15% and the Z score is recorded as -1.98.

Regarding `CCOc1ccc2c(c1)C=C(C(=O)NCCc1csc(C)n1)CO2`, the “% Inhibition” value is on record as 1% and the Z score is recorded as -0.08.

As to `CC(O)C(C)S(=O)(=O)C(C)C(=O)N1CCCCC1` (stereo unspecified), the “% Inhibition” value is recorded as -10% and the Z score is reported as 1.49.

As to `CCCC1(Cn2nnnc2N2CCCN(C(C)=O)CC2)CCC1`, the “% Inhibition” value is -6% and the Z score is listed as 0.72.

In the case of `NC(=O)CN(CCC1CCCCC1)C(=O)c1cncnc1`, the “% Inhibition” value is on record as -7% and the Z score was 0.88.

As to `COc1cn(CC(=O)NC2CCN(Cc3ccccc3)CC2)c(CN2CCOCC2)cc1=O`, the “% Inhibition” value was 7% and the Z score was -0.83.

For `Cc1ccc(C)c([C@H]2CC(=O)Nc3cc(N4CCCC4=O)ccc32)c1`, the “% Inhibition” value is listed as -11% and the Z score was 1.25.

Turning to `O=C(Nc1ccc(Cl)cc1)c1cc2ccccc2cc1NS(=O)(=O)c1cc(Cl)ccc1Cl`, the “% Inhibition” value amounted to 12% and the Z score is recorded as -1.76.

On to `Cc1ccc(-c2cn[nH]c2[C@H]2CCCN(C(=O)c3cnc4ccccn34)C2)cc1`, for which the “% Inhibition” value is recorded as -7% and the Z score was determined as 1.4.

For the compound `O=C(C[C@@H]1NC(=O)c2ccccc2NC1=O)Nc1ccccc1`, the “% Inhibition” value is 1% and the Z score was -0.07.

`CCCCC[C@@H](C)NC(=O)N(C)Cc1nc(C)c[nH]1`: the “% Inhibition” value was -5% and the Z score is recorded as 0.7.

Turning to `CCC[C@@]1(C2CCN(C(=O)CCc3cccs3)CC2)NC(=O)N(CCc2ccccn2)C1=O`, the “% Inhibition” value is given as -8% and the Z score stood at 1.01.

In the case of `CC12CC(c3ccccc3O1)N(C(=O)c1ccc(Cl)cc1)C(=O)N2c1ccc(F)cc1F` (stereo unspecified), the “% Inhibition” value is 7% and the Z score was -0.78.

Consider `Cc1cc(CN2CCN(c3nnc(C)c(C)c3C#N)CC2)on1`, for which the “% Inhibition” value worked out at 0% and the Z score is given as -0.07.

In the case of `CC1CCN(CCCOc2ccc3c(c2)OCO3)CC1`, the “% Inhibition” value was 45% and the Z score is -3.83.

With `O=C(Nc1cccc(C2OC(=O)N(Cc3ccc(F)cc3)C2C(=O)Nc2ccccc2)c1)c1ccccc1` (stereo unspecified), the “% Inhibition” value was -3% and the Z score worked out at 0.33.

In the case of `COCc1cc(=O)n(CC(=O)N[C@@H](C)c2ccc(OC)cc2)c(N2CCOCC2)n1`, the “% Inhibition” value is given as 26% and the Z score is given as -3.97.

Turning to `NC(=O)c1nc(CNC(=O)N2CCCCCC2)no1`, the “% Inhibition” value is given as -20% and the Z score came to 1.8.

In the case of `O=C(NCC1CC1)C1CCN(c2ncnc3c2oc2ccccc23)CC1`, the “% Inhibition” value was -1% and the Z score amounted to 0.17.

By % Inhibition is commonly meant the change of the read-out against control, counted positive when it falls.

The record behind these values is ChEMBL document CHEMBL4888484, “Replenishing the malaria drug discovery pipeline: Screening and hit evaluation of the MMV Hit Generation Library 1 (HGL1) against asexual blood stage Plasmodium falciparum ,using a nano luciferase reporter read-out” (2022).
